The record followed here is PMC10726135.

This is one part of the list. At the low end of the ranking, values are background and their order means little. The protein was read in a cell extract, so binding may be indirect.

This experiment addresses T1, HNF4alpha2 (COS-7 nuclear extract) (UniProt P41235).
T1 sequence: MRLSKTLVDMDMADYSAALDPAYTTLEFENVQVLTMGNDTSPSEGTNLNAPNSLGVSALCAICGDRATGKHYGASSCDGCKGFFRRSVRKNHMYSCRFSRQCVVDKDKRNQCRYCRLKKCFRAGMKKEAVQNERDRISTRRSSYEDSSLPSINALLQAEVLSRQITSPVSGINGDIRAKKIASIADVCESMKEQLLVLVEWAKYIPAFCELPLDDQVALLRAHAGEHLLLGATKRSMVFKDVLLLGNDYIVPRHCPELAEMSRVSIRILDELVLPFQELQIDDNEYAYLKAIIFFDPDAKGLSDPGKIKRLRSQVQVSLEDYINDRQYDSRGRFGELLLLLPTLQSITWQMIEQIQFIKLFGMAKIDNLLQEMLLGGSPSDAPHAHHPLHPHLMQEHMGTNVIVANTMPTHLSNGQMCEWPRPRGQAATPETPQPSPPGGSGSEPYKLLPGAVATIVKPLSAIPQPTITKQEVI
The experiment is described as follows: protein-binding microarray. The following applies: COS-7 nuclear extract on double-stranded Agilent 4x180k PBM; binding buffer, salt, pH and temperature not given; high values mean tight binding; double strand, one strand shown; sequences stand for … in …GCCTAGGGAGATTAGAGTATCGGTCGA
For the sequence CTGGCTTGGAAAAAGCAGGCAACCAAGGGT, the binding signal (log2 normalized intensity) is -1.07. As to TATCTTCCAGACCTTCTTAAAAAGTGTTGA, the binding signal (log2 normalized intensity) came out at 1.12. As for TTTGCCTTAGGCCATTGTCCTTTGGGCTCA, the figure is 1.06; as for CTAGAACAGCTCCTTTGAAGCTTCGAGCCT, -1.19; as for ATGTCCCTACCACATACAGAATCCTTTACC, -0.474.

On to TGCCCAAAAGGACACAGGGTCTGTTTTCAA, for which the binding signal (log2 normalized intensity) is -0.994.

Take TTTGTTAACAGCTTCTGTTCGCAGACCTGC: the binding signal (log2 normalized intensity) was -1.01. Consider GTCCTCCACAGCGTTTTCCTCCAGCCTGTC, for which the binding signal (log2 normalized intensity) was -0.193.

With TCAGAAGGGAGGTAGTCGCCCTCCGTCGTG, the binding signal (log2 normalized intensity) is -0.634. As for TGTTGTCTAACATTTTTGACCTTCAGCATC, the binding signal (log2 normalized intensity) is 5.15. For GTAAAGATCTTGAGGCCCACAAGGAATTTC, the binding signal (log2 normalized intensity) was -1.17. With CCAGATGAGAGCAGAGGCTGGGGCCCTCTT the figure was -1.07; with GGACTTTGGTCTCATGGGCCTAAACATTCC, 4.39. Regarding TGAAGAGGCCAGGGGCACTCTCTGTTATCA, the binding signal (log2 normalized intensity) is -1.18. On to TTAGGATGACCTTTAGATTCTTACAGGCAA, for which the binding signal (log2 normalized intensity) was determined as 3.63. As for ACGGGGGCCGCTCTCCCTCCAGGCCCCAGC, the figure is -1.1. For the sequence ACTGTCATGGATGACCTCTTTTAGTAACTG, the binding signal (log2 normalized intensity) came to 1.45. Turning to TGGTGTTGAAGCTCTGGTTCAAACAAGGCC, the binding signal (log2 normalized intensity) was -0.203. For the sequence ATATCTGCCTCAGTAGTAGTGAAAAATGAA, the binding signal (log2 normalized intensity) stood at 0.796. TTTCATTCCACTGACTTGCAACCTTTGCCC: the binding signal (log2 normalized intensity) came out at 6.76. Take AATTTCAGAGGGAAGAGGAAGCATCCTATA: the binding signal (log2 normalized intensity) is -1.24.

Turning to CAAAGGTCATAATTTGATCCAGTGTGCAAA, the binding signal (log2 normalized intensity) was determined as 3.35. As for CCTTTGAGAGTCAACACTGAAATAGCATAC, the figure is -1.1. Take TGAGTTCCACAGATAAGGAGGAGACAGACT: the binding signal (log2 normalized intensity) is -0.871. On to AAGAGATAAGGGTGGCCATCCATCCTGGCG, for which the binding signal (log2 normalized intensity) was -1.03.

With AGCAGACCCCTACTGGGGATGGACTTTGGC, the binding signal (log2 normalized intensity) was 6.08. Turning to ACATTCCATGAGCTGGCCTCACTAAGTCCT, the binding signal (log2 normalized intensity) was -0.959. For the sequence CTTGGAGGACCTTGGGTTCATTTTACAATG, the binding signal (log2 normalized intensity) stood at 1.95.

Consider CAGAATGAACAGCTCTTCTTGCCAGCTGGC, for which the binding signal (log2 normalized intensity) is -1.28. In the case of TATAGAAAAGGAAAGTGAGGCCTGGCCGAG, the binding signal (log2 normalized intensity) is -0.954. With GGGAGTGCAGAGAGAGAGGGAGACAACCTT, the binding signal (log2 normalized intensity) was -1.09.

CTGACGCAACAGAAAACTCAACTTCTAACT: the binding signal (log2 normalized intensity) was -1.23.

Turning to GCACAGGGAATGGCTCGTATGAATGTGGGA, the binding signal (log2 normalized intensity) was found to be 0.0605.

As for CCCTCAGGGTTTAGGCCTGGGACCTTTCCA, the binding signal (log2 normalized intensity) is 1.33. As for GAGCTTCAGACGCCCTATGGCGTCCGCCTC, the figure is -1.2; as for TGCCTCTGAGCTAAGATAACCATCAAATCC, -1.06; as for TCTTTCAGTGTTGACCTTTGAACATTTCTT, 8.04. With TTCTGCATGTCATAGTTGACATTCCATCAT the figure was 0.607. With CCCTGCCTGACCTGCCCTTTGTCCCTCCTG the figure was 4.51. As to CTGGAATGTTTCAAGTGGCCTGATTTGACA, the binding signal (log2 normalized intensity) came to 1.08. Regarding AGAGCAAGGGTCAAGGGTCATTTGTTTTTA, the binding signal (log2 normalized intensity) was determined as 5.91. Consider GCCACTGTGTGTGTGTGTGTGTCTGTGTGT, for which the binding signal (log2 normalized intensity) came to 3.29. With CACTGCACCTGCCTGAACAAGTCCAGTGAC, the binding signal (log2 normalized intensity) is -0.89.

For AGGTAAAAAGTCCAGCTGCCAGGGAGACAA, the binding signal (log2 normalized intensity) was -1.09. For GAGGTTATTTCACCCCAGCAAACAGGTCCT, the binding signal (log2 normalized intensity) was found to be 1.59. With AATGATTGCATAATCTGGCTCCAAAGTCTA, the binding signal (log2 normalized intensity) was 2.2.

Regarding CACTTGTGCAGTTTTTCTGCCGAAGATATT, the binding signal (log2 normalized intensity) is 1.23. As for TCTGCTGCCCTCTAGGGTTGCCCAGGGAGA, the figure is -0.85; as for CCAGGGGAGGGTAAGAGTCCAACTTCTGCA, 2.13; as for AGTTTCAACTTAACCCCAGTTTAGCAATTT, 1.96. As for CAAAGGTCATACCTGTCTAGGTGGAGGGAC, the binding signal (log2 normalized intensity) came to 2.88. With ATGACAATAAATTATACCAACTATTTAAGA the figure was -1.18.

With TATAGTTTATCTACCTTTGTACCTTTAGTA, the binding signal (log2 normalized intensity) is 3.8.

CAAGAGTGACCTTTGCTCCAGTTCCCAATA: the binding signal (log2 normalized intensity) was 6. With GGCCATCTTCCTCAACATGATGCTTTAGGC the figure was -0.756. Regarding ATGTCTTTCTGGCTGGAGAGGAGGTTATCT, the binding signal (log2 normalized intensity) is 1.01. In the case of CTGCCTCCCATCTTGCAGCTGACCCTGGCC, the binding signal (log2 normalized intensity) is 2.95. GCCCAGCATGCCCCGCGCCGCGTCCCTTCC: the binding signal (log2 normalized intensity) was found to be 1.17.

AGCCGTCTGGTAAATTTCTAACACTCCCCA: the binding signal (log2 normalized intensity) was determined as 1.97. As for TGATCCTGAAGACAAAGCACAATCAAAGCA, the figure is -1.16; as for CAACTTAACCCCAGTTTAGCAATTTGCTCT, 0.322.

As to TTATAAACTTGTTTGGGATTAAAGGATCAA, the binding signal (log2 normalized intensity) turned out to be 1.03.

Take TGCTAGACAAGGGAATTACTCTTCTATTAC: the binding signal (log2 normalized intensity) was -1.31. As to TTGCCTACATAAGGAGCAGCACTTTGACCT, the binding signal (log2 normalized intensity) worked out at 5.13.

Turning to TTTGGGGGTTGGTATTACAAAGCAATCTAC, the binding signal (log2 normalized intensity) was -0.733.

Consider TTGCTTAAGCTTTCTGTCTGCAGCTGAACC, for which the binding signal (log2 normalized intensity) worked out at 1.45. Turning to GTCATAAATACTCATTATGTTGCTGATAAA, the binding signal (log2 normalized intensity) was 1.18. In the case of TTGGCCTCTACAGCTACTCCAGCTGGAGAA, the binding signal (log2 normalized intensity) is -1.09.

CAAAGGGCACCCTTGATGTGTATTTGTAGC: the binding signal (log2 normalized intensity) was 1.39. With CAATTCCTTATCTCGTTCTGATAGCAAGGA, the binding signal (log2 normalized intensity) amounted to 1.14. As for ACCTTTCTCCCTTTTCACAGGAGAGGAGAA, the figure is -1.03. With GGTTTTCGGTTTTCAAATGAACCCGGCAGG, the binding signal (log2 normalized intensity) stood at 1.86.
